Assay results published in publication PMC4336329 (PLoS ONE, 2015).
In all, about 310,000 compounds went through this assay and about 2,200 (0.71%) showed an effect of 50% or more. Effects have a minus sign here. The list shows a part of the results.

biological target: human ether-à-go-go-related gene (hERG) potassium channel (human, UniProt Q12809); test: primary screen, population patch clamp on CHO cells stably expressing hERG
Sequence (Q12809 whole entry, looked up): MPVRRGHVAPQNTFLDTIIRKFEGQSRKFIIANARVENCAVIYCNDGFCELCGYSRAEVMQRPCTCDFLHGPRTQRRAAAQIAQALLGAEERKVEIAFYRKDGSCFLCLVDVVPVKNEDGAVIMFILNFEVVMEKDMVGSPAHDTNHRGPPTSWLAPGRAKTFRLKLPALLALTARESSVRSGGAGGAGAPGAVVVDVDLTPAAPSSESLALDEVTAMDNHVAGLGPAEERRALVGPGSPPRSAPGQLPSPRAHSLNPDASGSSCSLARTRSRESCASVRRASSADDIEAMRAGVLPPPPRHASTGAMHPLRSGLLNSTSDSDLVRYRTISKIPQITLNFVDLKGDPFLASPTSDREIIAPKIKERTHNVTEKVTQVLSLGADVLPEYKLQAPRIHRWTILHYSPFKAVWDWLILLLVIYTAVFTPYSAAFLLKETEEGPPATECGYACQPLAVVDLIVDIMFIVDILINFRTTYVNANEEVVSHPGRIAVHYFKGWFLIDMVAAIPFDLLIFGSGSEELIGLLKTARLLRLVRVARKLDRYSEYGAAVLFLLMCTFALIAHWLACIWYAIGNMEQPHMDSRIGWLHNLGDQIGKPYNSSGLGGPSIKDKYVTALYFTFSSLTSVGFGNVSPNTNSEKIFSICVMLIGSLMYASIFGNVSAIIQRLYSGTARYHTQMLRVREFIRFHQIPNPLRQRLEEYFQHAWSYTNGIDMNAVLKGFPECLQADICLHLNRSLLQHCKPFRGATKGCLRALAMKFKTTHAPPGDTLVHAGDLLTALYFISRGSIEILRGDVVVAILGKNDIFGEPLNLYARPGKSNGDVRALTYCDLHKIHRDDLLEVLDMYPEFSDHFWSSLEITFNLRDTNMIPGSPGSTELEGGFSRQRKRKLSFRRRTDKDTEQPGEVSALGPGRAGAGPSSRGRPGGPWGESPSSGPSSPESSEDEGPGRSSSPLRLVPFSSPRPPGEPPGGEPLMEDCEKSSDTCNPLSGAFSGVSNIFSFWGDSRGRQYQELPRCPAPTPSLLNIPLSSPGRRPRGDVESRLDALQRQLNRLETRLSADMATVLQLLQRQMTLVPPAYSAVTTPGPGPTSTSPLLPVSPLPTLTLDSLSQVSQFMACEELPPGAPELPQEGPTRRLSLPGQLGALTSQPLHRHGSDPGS

Row | Compound | hERG current change (%, negative = inhibition) at 1uM [%]
1 | Cc1ccccc1OCc1nnc(SCCN2CCCC2)n1-c1ccccc1.Cl | -36.5
2 | CCC(C)(C)n1nnnc1C(c1ccccc1OC)N1CCN(C(=O)c2ccco2)CC1 (stereo not drawn) | -2.71
3 | CC(=O)OC12CC3CC(C1)C(=NO)C(C3)C2 | 3.76
4 | COc1ccc(NS(=O)(=O)c2cc3c(cc2C)N(C(C)=O)CCO3)cc1 | 8.37
5 | COc1ccc(-c2nn3c(-c4ccc(F)cc4)nnc3s2)cc1 | 10.1
6 | CCN(CC)S(=O)(=O)c1cc(NC(=O)Cn2cnc3ccccc3c2=O)ccc1C | -20.7
7 | CCNc1nc(NCC)nc(N(C)N)n1 | 5.95
8 | COc1ccc(NC(=O)c2ccc3c(SCC(=O)O)c4c(nc3c2)CCCC4)cc1Cl | 12.4
9 | Cc1c(C(=O)Nc2cc(S(=O)(=O)N3CCOCC3)ccc2N2CCOCC2)oc2ccccc12 | 6
10 | Cc1cc(=O)oc2cc(OCC(=O)N3CCN(Cc4ccc5c(c4)OCO5)CC3)ccc12 | -0.606
11 | CCCc1nnc(NC(=O)c2cn(CC)c3cc(N4CCN(C)CC4)c(F)cc3c2=O)s1 | 17
12 | NC(=O)CC(NC(=O)c1ccccc1)c1ccc(N2CCN(c3ccccc3)CC2)c([N+](=O)[O-])c1 (stereo not drawn) | 3.06
13 | COc1ccc(-n2nc3c(N)n[nH]c3cc2=O)cc1 | -0.0408
14 | O=C(Nc1nc2ccccc2[nH]1)C1CCC1 | 1.2
15 | O=C(NCc1ccccc1)c1ccc(CNc2c(N3CCCC3)c(=O)c2=O)cc1 | 14.7
16 | CC(=O)Nc1ccc(S(=O)(=O)Nc2nc3ccccc3s2)cc1 | 3.91
17 | O=C1[C@@H]2C(Cc3ccc(O)cc3)NC3(C(=O)Nc4ccc(F)cc43)[C@@H]2C(=O)N1c1ccccc1 (stereo partly drawn) | 6.75
18 | COc1cccc(CN(C)C(=O)CC2C(=O)NCCN2C2Cc3ccccc3C2)c1 (stereo not drawn) | 9.5
19 | O=C(Cn1nc(C(F)(F)F)c2c1CCCCC2)N1CCOCC1 | 6.74
20 | COc1ccc(-c2nc(SCC(=O)Nc3cc(C)on3)n[nH]2)cc1 | 12.1
21 | Cn1c(/C(C#N)=C(\O)c2ccccc2Cl)nc2ccccc21 | 15.2
22 | Cn1c(O)c(N=NC(=O)CNC(=O)c2ccccc2)c2cc(Br)ccc21 | 11.7
23 | CC(=O)c1cccc(NC(=O)C(OC(=O)c2cccc(S(=O)(=O)N(C)c3ccccc3)c2)c2ccccc2)c1 (stereo not drawn) | 13.1

Row | Compound | hERG current change (%, negative = inhibition) at 1uM [%]
24 | CCCNCC1COc2ccccc2O1.Cl (stereo not drawn) | 18.4
25 | CN(Cc1nc2ccccc2c(=O)[nH]1)C(=O)c1ccccc1OCc1ccc(Cl)cc1 | -4.36
26 | CCN1C(=O)/C(=C\N(C)C)c2ccccc21 | 16.6
27 | COc1ccc(NCc2ccc3c(c2)OCO3)cc1Cl | 6.84
28 | CCN(CC)c1ccc2cc(C(N)=O)c(=O)oc2c1 | 9.2
29 | Cc1cc(C)c(C(=O)N2CCCC(N3CCN(c4ccc(F)cc4)CC3)C2)o1 (stereo not drawn) | -44.4
30 | O=S(=O)(Cc1c(F)cccc1Cl)c1ncn[nH]1 | 15.8
31 | C[C@@]12CCC3[C@@](CCC4[C@@]3(C)CCC[C@@]4(C)C(=O)NC3CCCCC3)(CC1=O)C2 (stereo partly drawn) | 9.88
32 | COc1ccc(OCc2cc(C(=O)N3C[C@H]4CC[C@H]3C4)no2)c(Cl)c1 | 10.3
33 | COc1ccc(NC(=O)COC(=O)C2CC3C=CC2C3)cc1 (stereo not drawn) | 10.5
34 | COc1ccc(OC)c(CN2CCN(c3ccccc3OC)CC2)c1 | -2.57
35 | CC1(C)N=C(c2ccccc2)C(=O)N1 | -12.4
36 | CCOC(=O)Cn1cnc2c(nnn2-c2ccc(OC)cc2)c1=O | 4.99
37 | COc1cc(OC)cc(C(=O)Nc2ccccc2C(=O)NCc2cccnc2)c1 | 9.6
38 | CCOc1ccc(OCCCCN(C)C)cc1 | 12.1
39 | c1ccc(C2C/C(=N\N3CCOCC3)c3ccccc3O2)cc1 (stereo not drawn) | 9.4
40 | COc1ccc(CC(=O)NNC(=S)NC(=O)c2cccnc2)cc1 | 12.4
41 | CCOC(=O)Cn1c(=O)oc2cc(S(=O)(=O)N(C)c3ccc(OC)cc3)ccc21 | -1.67
42 | CCOC(=O)c1ccccc1NC(=S)N1CCC(C(N)=O)CC1 | 15.9
43 | C/C(=N\NC(=S)NCc1ccccc1)c1ccc(C(C)(C)C)cc1 | 13.8
44 | COc1ccc2c(Cl)c(C(=O)NN)sc2c1 | 12.5
45 | CN(C)c1cc(-c2cccc(C(F)(F)F)c2)oc(=O)c1Cl | 21.6
46 | COc1ccc(NC(=S)NCCN2CCOCC2)c(OC)c1 | 3.05

Row | Compound | hERG current change (%, negative = inhibition) at 1uM [%]
47 | Cc1cccc2sc(NC(=O)c3cccc(S(=O)(=O)N4CCc5ccccc54)c3)nc12 | 11.4
48 | COc1ccc(OC)c(NC(=S)NCC(c2cccnc2)N2CCOCC2)c1 (stereo not drawn) | 10.3
49 | O=C(CNC(=O)c1cccc(F)c1)N/N=C/C=C/c1ccccc1 | 7.22
50 | c1ccc(-n2cc(CNCCc3cscn3)c(-c3ccc4c(c3)OCO4)n2)cc1 | -3.84
51 | COc1ccc(-c2noc(CCCC(=O)NC3CCCC3)n2)cc1OC | 13.8
52 | CCn1c(SC)nc2cc(S(=O)(=O)N3CCCCC3)ccc21 | -6.34
53 | COc1ccc(NC(=O)c2ccccc2)cc1 | 13
54 | O=C(c1ccccc1)C1CCN(C(=O)C2CCC(=O)N(Cc3ccccc3F)C2)CC1 (stereo not drawn) | -8.89
55 | O=C(CSc1ncnc2nc[nH]c12)NCCc1ccccc1 | 5.38
56 | CCOC(=O)N1CCC(NS(=O)(=O)c2cc(Br)cnc2N)CC1 | -1.22
57 | COc1ccc(CNC(=O)[C@@H](C)NC(=O)[C@@H]2Cc3ccccc3CN2)cc1 | -0.521
58 | CCOC(=O)C1(Cc2cccc(Cl)c2)CCCN(C(=O)CCSC)C1 (stereo not drawn) | 7.77
59 | CC(NC(=O)c1nn(C)c(=O)c2ccccc12)c1ccc(F)cc1 (stereo not drawn) | 11.8
60 | Cc1ccccc1CNC(=O)c1ccccc1 | 13.4
61 | CC(=O)N1CCCN(Cc2cn(-c3ccc(C)cc3)nc2-c2cccc(C)c2)CC1 | 4.46
62 | COc1ccc(N2CC(C(=O)Nc3cc(C)ccn3)CC2=O)cc1 (stereo not drawn) | 10.9
63 | CCc1ccc(CN2CCN(Cc3cc(Br)ccc3O)CC2)cc1 | 15.3
64 | CCC(=O)NC(Cc1ccccc1)c1nc2ccccc2[nH]1 (stereo not drawn) | 12
65 | Cc1ccc(CNS(=O)(=O)N(C)C)cc1 | 16
66 | O=S1(=O)CC(O)C(N(CCO)C(=S)Nc2ccccc2)C1 (stereo not drawn) | 12.3
67 | C/C=C(\C)CN1CCN(c2cc(C)ccc2C)CC1 | 7.21
68 | Oc1cccc(CCC2CCCCN2Cc2cn[nH]c2-c2ccc3c(c2)OCO3)c1 (stereo not drawn) | -46.1
69 | COc1ccc(OC)c(NC(=O)CC2SC(=NCc3ccccc3)NC2=O)c1 (stereo not drawn) | 1.29

Row | Compound | hERG current change (%, negative = inhibition) at 1uM [%]
70 | Cc1cc(NC(=O)C2C3C(=O)N(CC4CCCO4)C(C(=O)NCc4ccccc4)C34C=CC2(C)O4)no1 (stereo not drawn) | 12.8
71 | Cc1ccc(C(=O)NCCCNC(=O)COc2ccc(Cl)c(C)c2)cn1 | -11.2
72 | O=C(c1ccc(F)cc1)C1CCN(C(=S)NCC2CCCO2)CC1 (stereo not drawn) | 7.51
73 | O=C(NC(=S)NC1CCS(=O)(=O)C1)c1ccccc1F (stereo not drawn) | 15.2
74 | Cc1cc(C)cc(NC(=O)Cc2ccc(-n3cccc3)cc2)c1 | 20.4
75 | CC(=O)Nc1ccc(C2NC(=O)CCC2[N+](=O)[O-])cc1 (stereo not drawn) | 7.01
76 | Cc1cc(C(=O)CN2C(=O)NC(C)(c3ccccc3)C2=O)c(C)n1CC1CCCO1 (stereo not drawn) | -1.43
77 | COc1ccccc1C(=O)NCCC(=O)Nc1ncccc1O | 16.8
78 | O=C(CCc1ccccc1)N1CCCC1 | 11.3
79 | O=C(O)c1ccc(-c2ccc(OS(=O)(=O)c3ccccc3F)cc2)cc1 | 9.21
80 | CCc1ccccc1NC(=S)NCc1ccc2c(c1)OCO2 | -14
81 | CCN1C(=O)C(CC(=O)Nc2ccc(F)cc2)N(Cc2ccc3c(c2)OCO3)C1=S (stereo not drawn) | 7.24
82 | O=C(CCS(=O)(=O)c1cccs1)Nc1ccc(C(=O)NCc2cccs2)cc1 | 12.1
83 | CC(=O)OCCN1C(=O)c2cccnc2C1=O | 4.85
84 | Cc1ccccc1S(=O)(=O)Nc1nc2ccccc2nc1N1CCOCC1 | 8.94
85 | COc1ccccc1NC(=S)NC(=O)Cc1ccccc1 | 16.7
86 | N#CC1=C(N)SC(N)=C(C#N)C1c1cccc(O)c1 | 11.4
87 | COc1ccc(Cl)cc1NC(=O)CN1CCC(n2nnc3cc(C)ccc32)CC1 | 5.49
88 | C/C=C/C(=O)OCC(=O)Nc1ccc(SC(F)F)cc1 | 1.22
89 | O=C(CN1CCOCC1)Nc1scc2c1c(=O)oc1ccccc12 | 15.2
90 | O=C(O)[C@@H]1CCCN1C(=O)c1ccccc1N1C(=O)[C@@H]2Cc3c([nH]c4ccccc34)C(c3cccc(Cl)c3)N2C1=O (stereo partly drawn) | 6.63
